In the supplement of paper PMC3334620:
In all, about 33,000 sequences were measured (“E-score (-0.5 to 0.5)”: median about -0.035, highest 2% from about 0.35 on). This is one part of the list.

Each sequence was assayed against T1, Pdr3 (UniProt P33200) (assay: PBM E-score (8-mer binding enrichment) (E-score (-0.5 to 0.5)); higher = stronger / more preferred TF binding; most listed sequences are background and not binding sites). Conditions: protein concentration: 200 nM; construct: GST-full length.
T1 sequence: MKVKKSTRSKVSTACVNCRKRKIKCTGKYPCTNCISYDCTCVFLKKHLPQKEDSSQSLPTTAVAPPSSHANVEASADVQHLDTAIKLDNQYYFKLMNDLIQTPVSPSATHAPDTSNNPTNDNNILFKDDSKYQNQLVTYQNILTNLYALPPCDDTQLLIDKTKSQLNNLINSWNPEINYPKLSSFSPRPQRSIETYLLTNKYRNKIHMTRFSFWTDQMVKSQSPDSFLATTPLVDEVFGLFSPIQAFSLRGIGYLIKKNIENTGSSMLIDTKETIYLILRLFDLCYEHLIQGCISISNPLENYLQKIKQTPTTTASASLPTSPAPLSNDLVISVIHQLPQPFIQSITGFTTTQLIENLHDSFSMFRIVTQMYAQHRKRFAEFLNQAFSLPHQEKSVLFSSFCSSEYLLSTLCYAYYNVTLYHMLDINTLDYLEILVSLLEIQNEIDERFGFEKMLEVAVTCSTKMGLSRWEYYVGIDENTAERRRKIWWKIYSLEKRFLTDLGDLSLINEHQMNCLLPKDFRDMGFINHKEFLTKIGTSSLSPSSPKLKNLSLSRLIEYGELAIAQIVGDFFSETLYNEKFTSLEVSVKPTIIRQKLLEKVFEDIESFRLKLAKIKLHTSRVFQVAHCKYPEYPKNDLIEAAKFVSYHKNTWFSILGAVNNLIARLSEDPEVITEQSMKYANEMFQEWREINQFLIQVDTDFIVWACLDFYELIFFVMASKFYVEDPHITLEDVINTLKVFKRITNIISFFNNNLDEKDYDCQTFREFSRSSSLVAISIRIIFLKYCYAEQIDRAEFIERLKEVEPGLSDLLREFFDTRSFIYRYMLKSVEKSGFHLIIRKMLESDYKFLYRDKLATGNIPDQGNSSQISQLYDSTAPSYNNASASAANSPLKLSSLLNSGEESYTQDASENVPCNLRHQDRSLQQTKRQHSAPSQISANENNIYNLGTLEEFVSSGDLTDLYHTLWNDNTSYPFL
Description: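 Universal 'all 10-mer' protein binding microarrays (Agilent AMADID 015681) probed with GST-tagged S. cerevisiae TFs (full-length or DBD) made by in vitro transcription/translation (PURExpress), about 100-200 nM. Bound TF was detected with fluorescent anti-GST. Each ungapped 8-mer (which stands for itself and its reverse complement) is scored by the PBM enrichment score (E-score), a modified Wilcoxon-Mann-Whitney statistic from -0.5 to +0.5, computed with the Universal PBM Analysis Suite. Scale: above 0.35 generally sequence-specific binding.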

Row | Sequence | PBM E-score
1 | CCCAGTAG | -0.11
2 | GGCATAAA | -0.0711
3 | GACCTGAC | -0.081
4 | ACAGTGAA | -0.136
5 | AGAGGGCG | 0.126
6 | GAGGCCCA | -0.0272
7 | AGCCCCTA | -0.104
8 | AATGTACC | -0.281
9 | TGAACTAA | -0.114
10 | CTCGAGAG | -0.107
11 | GGATAACC | 0.117
12 | AAGTTATC | -0.082
13 | CCTACTCA | -0.00584
14 | CGTTTCCC | 0.21
15 | ACAAGCGG | 0.135
16 | AATAGACC | 0.116
17 | ACCGTAAT | 0.0483
18 | GATGTCAC | 0.0632
19 | ATGAGAAC | -0.0344
20 | ATCATGAC | -0.0412
21 | ACTATCAA | 0.0687
22 | CCAGCCGA | 0.143
23 | CGGAACTC | 0.452
24 | CCCTTGAC | -0.0397
25 | CAACTATG | -0.113

Row | Sequence | PBM E-score
26 | CGATTTCA | -0.0484
27 | CAGGACTA | -0.092
28 | CTCGTTTA | -0.0756
29 | CGTTTCCA | -0.0281
30 | AAGATCTT | 0.00268
31 | CGGCGTCA | 0.0809
32 | CTTTTTAA | -0.194
33 | CTCTGCAG | -0.226
34 | AGGCCTTA | -0.254
35 | TATTATCA | -0.00298
36 | CAATGACG | -0.179
37 | ATGTAAGC | 0.0351
38 | CCTAAAGA | -0.277
39 | GTAATCGA | 0.0483
40 | AGTGGCTA | -0.311
41 | ACGAACAC | 0.0253
42 | TGGAAACA | -0.184
43 | GAGATTCA | 0.0192
44 | AAATCCTG | -0.107
45 | CACCGTAC | -0.119
46 | CATGCTTA | -0.197
47 | TCTAATCA | 0.0324
48 | GGATTTTA | 0.14
49 | CTACGTAG | -0.027
50 | AAGCGTCT | -0.162

Row | Sequence | PBM E-score
51 | GCCTTTGA | -0.119
52 | GTAGTTAA | -0.033
53 | ACTTAGGA | -0.334
54 | AGAGCTGG | -0.0463
55 | GGGGCCAA | -0.0943
56 | GACTGTAA | -0.116
57 | GGAGCCCA | -0.138
58 | ACCGGGAA | 0.309
59 | GGGAGTAA | -0.0521
60 | AGGGGTAC | -0.0636
61 | CTATTCAA | -0.0593
62 | GTGACACA | 0.00547
63 | AGCTTGGC | -0.178
64 | ACTCATTG | -0.02
65 | AGCACGCG | 0.0788
66 | AGTAGATG | -0.0364
67 | CAGGCCAC | 0.00119
68 | AGCTCCGA | 0.239
69 | CCGCTAAG | 0.148
70 | CGGGCCCG | 0.44
71 | CAGACGCG | -0.217
72 | TAAACCGA | 0.0491
73 | AGGGCCAT | -0.144
74 | GTTCGTCA | -0.122
75 | AGCCCTGC | -0.173

Row | Sequence | PBM E-score
76 | CGTGGGGA | 0.12
77 | CTAGGGCC | -0.2
78 | CCGATCAC | 0.184
79 | TACGGCTA | -0.151
80 | ATCGGTTC | 0.192
81 | AGCCTTCC | -0.0527
82 | CAGATGAG | -0.164
83 | CTCATGTC | -0.0622
84 | GCAGGTGA | -0.238
85 | AACGGCTT | 0.0106
86 | AGCCATGG | -0.264
87 | CACCGCCG | 0.0689
88 | CAATATGA | -0.0412
89 | GCTAAGAC | 0.0562
90 | CTGTATCC | 0.164
91 | CAAGCTCG | 0.134
92 | ATAAACGC | -0.109
93 | CCGTTGGC | 0.267
94 | ATACCCTA | -0.253
95 | AATCTCTA | -0.0032
96 | CGTTGCAA | 0.0158
97 | GCAGGGGA | -0.0573
98 | AGCCTGGC | -0.133
99 | CGGAACGC | 0.466
100 | GTAGCCCA | -0.27

Row | Sequence | PBM E-score
101 | AGTAGACC | -0.0973
102 | CACCCCTA | -0.137
103 | CTGCCTGC | -0.271
104 | CGGACCTC | 0.287
105 | GCTATAGA | -0.193
106 | CCGGAGTC | 0.384
107 | AGTTTAAC | -0.113
108 | GATGCGGC | 0.109
109 | CGAGACTA | -0.0399
110 | CGCTTGGC | -0.21
111 | TAAGTGGA | -0.0436
112 | AGTCGCTG | -0.205
113 | ATTCAACC | 0.106
114 | ACAGTAAG | -0.0855
115 | ATCTCCAA | -0.0877
116 | CCGGAAGC | 0.444
117 | CGGTCTCA | -0.115
118 | GTCCCTCA | -0.142
119 | AGTTAAAT | -0.224
120 | GTCAAGCA | -0.183
121 | ATTCTCTC | -0.0624
122 | ATCATCAA | 0.0482
123 | TCGATGAA | 0.0252
124 | TAACTGCA | -0.111
125 | CTACAATA | -0.0767

Row | Sequence | PBM E-score
126 | CGCTCGTA | -0.0554
127 | AAGTGAGA | -0.058
128 | GCTACAAC | -0.059
129 | TAGCGGGA | 0.14
130 | TAGGGGGA | -0.218
131 | AACTGGTA | -0.0616
132 | TTTCAAAA | -0.113
133 | TCAGCAGA | -0.151
134 | AGTACACT | -0.24
135 | GTTCCGAA | 0.471
136 | AACGAGGT | -0.104
137 | GTGTTTTA | -0.0862
138 | CCTCCGGA | 0.416
139 | CCGAGCAG | 0.127
140 | AACACCAG | -0.196
141 | ATTAACCA | -0.13
142 | GGGCATGA | -0.182
143 | ACGAGGCT | -0.136
144 | CTAATGGA | -0.0673
145 | CTATATTC | -0.142
146 | CCCCGATC | 0.212
147 | GTATCTTA | 0.111
148 | CCAAATAA | -0.15
149 | ATGGTATG | -0.0529
150 | AAATCAAG | 0.0523

Row | Sequence | PBM E-score
151 | ACATGACA | -0.0834
152 | ACCTAACC | 0.0696
153 | CCAATCTC | 0.0944
154 | AGGGGGAC | -0.171
155 | ACCGCTTC | -0.102
156 | CCAGGTGA | -0.226
157 | CTTCGTTC | -0.0864
158 | CGAGACCC | 0.21
159 | CGTGTTCC | 0.383
160 | GCGTCTCC | 0.172
161 | GAGACGAA | -0.111
162 | ACCCAACC | -0.0307
163 | TCGGCAGA | 0.239
164 | AAGAACTT | 0.00973
165 | AGGTGCCA | -0.00884
166 | CTTGATGC | -0.136
167 | AGATGGAG | -0.127
168 | ATAATGAT | 0.0423
169 | GAAAAAAC | -0.0935
170 | CTTTCTCA | -0.193
171 | ATACGGTA | 0.0302
172 | ATACCACA | -0.0693
